{"source": "ChEMBL document CHEMBL4888484", "about": "“Replenishing the malaria drug discovery pipeline: Screening and hit evaluation of the MMV Hit Generation Library 1 (HGL1) against asexual blood stage Plasmodium falciparum ,using a nano luciferase reporter read-out” (2022)", "note": "In all, about 150,000 compounds went through this assay and about 540 (0.36%) showed an effect of 50% or more. This is one part of the list.", "data": [{"tested_on": "Plasmodium falciparum", "assay": "Primary screen in NF54 nanoGlo assay, in single point, at 2uM, 72h; a lower Z score goes with more inhibition", "type": "functional, Erythrocyte", "settings": "timepoint 72 hour", "units": {"% Inhibition": "%"}, "values": [{"smiles": "CS(=O)(=O)Cc1nc(COc2cccc(-n3ccnc3)c2)cs1", "% Inhibition": -2, "Z score": 0.17}, {"smiles": "C[C@@H](c1ccccc1F)N(C)c1ccnc(N(C)C)n1", "% Inhibition": 2, "Z score": -0.29}, {"smiles": "Cc1cc(C(=O)N[C@@H](C)CCc2ccc(C)o2)on1", "% Inhibition": 4, "Z score": -0.56}, {"smiles": "O=C(c1cccn1C1CC1)N1CCN(c2ccncc2)C[C@@H](O)C1", "% Inhibition": 5, "Z score": -0.65}, {"smiles": "CCN1CCN(C(=O)CN2C(=O)COc3ccc(C(=O)COc4ccc(Cl)c(C)c4)cc32)CC1", "% Inhibition": 2, "Z score": -0.38}, {"smiles": "N#Cc1ccc(C(=O)N2CC[C@H](Nc3cccnc3)C2)cc1", "% Inhibition": -7, "Z score": 0.93}, {"smiles": "Cc1ccc(S(=O)(=O)NC(=O)c2scnc2C2CC2)s1", "% Inhibition": -16, "Z score": 1.4}, {"smiles": "Cc1ccc(C(=O)N2CCC3(CC2)N[C@H](C(=O)NCC(C)C)Cc2[nH]cnc23)cn1", "% Inhibition": -6, "Z score": 1.04}, {"smiles": "Cc1csc([C@H](C)NC(=O)c2ccn(C)c2C)n1", "% Inhibition": -14, "Z score": 1.42}, {"smiles": "CC(C)(NC(=O)COC[C@H]1CCCCO1)c1nnc(N)s1", "% Inhibition": -10, "Z score": 1.92}, {"smiles": "Cc1ccc([C@]2(C)NC(=O)N(CC(=O)NC(=O)NCC(F)(F)F)C2=O)o1", "% Inhibition": 2, "Z score": -0.38}, {"smiles": "Cc1ncccc1CCNC(=O)N[C@H]1C[C@H](c2ccccc2F)C1", "% Inhibition": -13, "Z score": 1.7}, {"smiles": "O=C(NC[C@H]1CCCO1)N1CCc2[nH]c(-c3ccccc3)nc2C1", "% Inhibition": -17, "Z score": 2.48}, {"smiles": "O=C(NCc1ccc(OCC2CC2)nc1)[C@@H]1CCCN1C(=O)c1ccccc1O", "% Inhibition": -12, "Z score": 1.63}, {"smiles": "COC1CCC(C)(CNC(=O)N2CCN(c3nncn3C)CC2)CC1", "note": "(stereo unspecified)", "% Inhibition": 0, "Z score": -0.03}, {"smiles": "C[C@@H](CC#N)N(C)c1cnc(C#N)cn1", "% Inhibition": 1, "Z score": -0.15}, {"smiles": "CCc1cc(CNC(=O)NC2CCOC2c2ccccc2)on1", "note": "(stereo unspecified)", "% Inhibition": -6, "Z score": 1.05}, {"smiles": "COc1cccc([C@@]2(CC(=O)N3CCN(C(=O)c4ccco4)CC3)CC(=O)N(C3CCCC3)C2=O)c1", "% Inhibition": 8, "Z score": -1.52}, {"smiles": "Cc1nc2ccccc2n1CCc1noc(-c2ccco2)n1", "% Inhibition": -7, "Z score": 1.01}, {"smiles": "Cc1ccc(N2CCOC2=O)c(-c2ccccc2CN2CCOCC2)c1", "% Inhibition": -13, "Z score": 1.99}, {"smiles": "Cc1noc(C)c1CNc1ccccc1-n1cncn1", "% Inhibition": -6, "Z score": 0.57}, {"smiles": "Cc1cc(OC2CCN(C(=O)CCn3cnc4ccccc4c3=O)CC2)cc(=O)n1C", "% Inhibition": -11, "Z score": 1.84}, {"smiles": "CC[C@@H](c1nc(C)c(C)s1)n1cc(-c2ncc[nH]2)nn1", "% Inhibition": -16, "Z score": 1.73}, {"smiles": "N#Cc1ccc(F)c(CS(=O)(=O)NC2CC3CC2C2CCCC32)c1", "note": "(stereo unspecified)", "% Inhibition": -12, "Z score": 2.07}, {"smiles": "N#Cc1cc(-c2ccccc2)sc1NC(=O)COC[C@H]1CCCO1", "% Inhibition": -1, "Z score": 0.21}, {"smiles": "O=C1[C@H]2CCCC2=Nc2ccccc2N1Cc1ccc(F)cc1", "% Inhibition": -9, "Z score": 0.97}, {"smiles": "CCN(C)S(=O)(=O)N(C)[C@@H](C)Cc1ccc(OC)cc1", "% Inhibition": -14, "Z score": 2.6}, {"smiles": "CN(CCCCO)C(=O)C1(N(C)C(=O)OC(C)(C)C)CCC1", "% Inhibition": 21, "Z score": -2.64}, {"smiles": "Cc1cccc(-c2noc(C3(c4cccnc4)CC3)n2)n1", "% Inhibition": 22, "Z score": -2.79}, {"smiles": "c1nc(N2CCOCC2)cc(N2C[C@@H]3[C@@H]4CC[C@@H](C4)[C@@H]3C2)n1", "% Inhibition": 4, "Z score": -0.62}, {"smiles": "Cn1cc(Cl)cc1C(=O)N1CCC2(CC1)[C@H](O)C[C@@H]2O", "% Inhibition": -13, "Z score": 1.67}, {"smiles": "Cn1ccc(B2OC(C)(C)C(C)(C)O2)n1", "% Inhibition": -10, "Z score": 1.09}, {"smiles": "CCS(=O)(=O)Oc1cc(CN(CC(C)C)C(=O)NC(C)(C)C)ccc1OC", "% Inhibition": -16, "Z score": 1.56}, {"smiles": "Cc1ccc(C(=O)N2CCC(c3ocnc3C(=O)O)CC2)c(O)c1", "% Inhibition": 17, "Z score": -2.12}, {"smiles": "CCOC(=O)[C@H]1CCCN(C(=O)c2cnc(-c3cccc(C)c3)nc2N2CCN(c3ccccc3F)CC2)C1", "% Inhibition": -20, "Z score": 2.12}, {"smiles": "CC1CC(Nc2ccnn2CC2CCOC2)CN1C1CC1", "note": "(stereo unspecified)", "% Inhibition": 7, "Z score": -0.59}, {"smiles": "Cc1cccc(N(C)S(=O)(=O)c2c(C)n[nH]c2C)n1", "% Inhibition": -7, "Z score": 0.89}, {"smiles": "COC1CC2C(=O)N(C3CCN(Cc4ccccc4)CC3)C(=O)N2C1", "note": "(stereo unspecified)", "% Inhibition": -8, "Z score": 0.98}, {"smiles": "Cc1ccc2c(=O)c(-c3nc(-c4ccc(Cl)cc4)no3)cn(Cc3cccc(F)c3)c2n1", "% Inhibition": 8, "Z score": -0.73}, {"smiles": "C[C@@H](C(=O)NCc1ccccc1)N(C)Cc1cscn1", "% Inhibition": -10, "Z score": 1.61}, {"smiles": "OCC1CCN(c2ncc3c(n2)CCC[C@@H]3NC2CCCCCCC2)CC1", "% Inhibition": -3, "Z score": 0.4}, {"smiles": "O=C(Nc1cccnc1)c1cccc(S(=O)(=O)NC[C@H]2CCCCO2)c1", "% Inhibition": -3, "Z score": 0.41}, {"smiles": "Cc1cc(Br)ccc1CN[C@H]1COC[C@H]1n1ccnn1", "% Inhibition": -5, "Z score": 0.76}]}]}
